# Hit rate of the full screen: of about 310,000 compounds, about 2,200 (0.71%) showed an effect of 50% or more. The effect is printed as a negative number. Some of the results follow.
# Biological target: human ether-à-go-go-related gene (hERG) potassium channel (human, UniProt Q12809)
# Assay: primary screen, population patch clamp on CHO cells stably expressing hERG
# Chain of human ether-à-go-go-related gene (hERG) potassium channel (Q12809 whole entry, looked up): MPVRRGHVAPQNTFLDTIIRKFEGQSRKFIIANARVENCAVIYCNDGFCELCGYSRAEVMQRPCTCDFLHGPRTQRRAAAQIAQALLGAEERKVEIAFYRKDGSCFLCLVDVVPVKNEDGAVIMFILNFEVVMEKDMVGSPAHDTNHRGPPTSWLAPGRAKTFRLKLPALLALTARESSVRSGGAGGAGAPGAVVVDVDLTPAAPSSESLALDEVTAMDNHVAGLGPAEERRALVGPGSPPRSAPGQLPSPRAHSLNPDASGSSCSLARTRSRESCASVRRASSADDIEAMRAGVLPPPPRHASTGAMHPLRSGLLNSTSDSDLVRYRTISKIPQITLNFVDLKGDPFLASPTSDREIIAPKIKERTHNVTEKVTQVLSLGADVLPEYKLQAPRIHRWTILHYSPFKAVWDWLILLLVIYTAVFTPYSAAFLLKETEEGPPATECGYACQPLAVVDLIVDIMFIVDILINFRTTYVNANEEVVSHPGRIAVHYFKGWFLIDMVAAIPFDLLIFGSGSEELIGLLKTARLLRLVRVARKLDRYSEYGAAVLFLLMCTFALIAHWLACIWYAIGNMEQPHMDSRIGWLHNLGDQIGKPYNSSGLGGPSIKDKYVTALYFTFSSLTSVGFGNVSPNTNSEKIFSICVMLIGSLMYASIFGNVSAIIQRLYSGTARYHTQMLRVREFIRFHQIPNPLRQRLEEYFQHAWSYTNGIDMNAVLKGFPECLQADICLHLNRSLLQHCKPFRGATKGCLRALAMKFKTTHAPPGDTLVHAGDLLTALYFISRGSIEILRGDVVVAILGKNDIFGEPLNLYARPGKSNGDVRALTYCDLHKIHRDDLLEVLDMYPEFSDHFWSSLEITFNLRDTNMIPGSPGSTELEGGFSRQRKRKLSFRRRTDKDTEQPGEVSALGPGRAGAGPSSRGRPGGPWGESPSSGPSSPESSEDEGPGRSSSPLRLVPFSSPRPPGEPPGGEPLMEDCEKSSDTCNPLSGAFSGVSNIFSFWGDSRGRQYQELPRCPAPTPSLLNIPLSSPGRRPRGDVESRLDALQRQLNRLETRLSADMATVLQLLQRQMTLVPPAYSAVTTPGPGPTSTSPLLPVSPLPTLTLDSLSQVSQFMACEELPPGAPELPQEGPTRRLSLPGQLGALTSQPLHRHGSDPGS
row,Compound,"hERG current change (%, negative = inhibition) at 1uM [%]"
1,CN(C)c1nc(-c2ccccc2)ns1,17.1
2,O=C(CSc1cccc2cccnc12)N1CCCC1,10.2
3,COC(=O)c1sccc1NC(=O)CSc1ccccc1NS(=O)(=O)c1ccc(Br)cc1,16.9
4,COC(=O)c1ccc(Oc2c(C)oc3c(CN4CCN(C)CC4)c(O)ccc3c2=O)cc1,16.7
5,O=C(CSc1nnc(-c2ccccc2F)n1C1CC1)Nc1cccnc1Cl,12.3
6,CCOC(=O)c1cccc(NC(=O)C2CCCN2S(=O)(=O)c2cccc3cccnc23)c1 (stereo not drawn),-2.22
7,Cc1ccccc1NS(=O)(=O)c1ccc(OCC(=O)N2CCN(C)CC2)cc1,12.7
8,NC(=O)c1ccc(Oc2ccc3c(c2)CCC3)c([N+](=O)[O-])c1,10.3
9,NNC(=O)CN1C(CN2CCOCC2)=Nc2ccc(Br)cc2C1c1ccccc1 (stereo not drawn),-26.7
10,CCc1nnc(SCC(=O)N2CCCC(N3CCN(c4ccccc4C)CC3)C2)o1 (stereo not drawn),-2.3
11,O=C(N/N=C\c1ccoc1)c1ccco1,13.4
12,Cc1cc(C(=O)Nc2c(F)cc(F)cc2Br)c(C)o1,-7.8
13,O=C(N/N=C/c1cn(Cc2ccccc2)c2ccccc12)c1cc(O)cc(O)c1,14
14,CC(C)N1CCc2c(sc(NC(=O)c3nc4ccccc4s3)c2C(N)=O)C1.Cl,-1.83
15,O=C(NCc1ccccc1Cl)c1cnc2ccccc2n1,15.3
16,COc1ccc(-n2nc3c(c2NC(=O)CBr)CSC3)cc1,7.72
17,O=C(CCc1c[nH]c2ccccc12)N1CCCCCCC1,7.52
18,CCOC(=O)c1cnn(-c2ccc(C)cc2)c1N,7.77
19,CCN(CC)S(=O)(=O)c1ccc(C)c(NC(=O)CNc2cccc(S(=O)(=O)N3CCCC3)c2)c1,16.4
20,CCS(=O)(=O)c1nc(S(=O)(=O)c2ccc(Cl)cc2)c(N2CCC3(CC2)OCCO3)s1,4.56
21,Cc1cc(C)n2[nH]c(=O)c(N=Nc3ccc(S(N)(=O)=O)cc3)c2n1,19.8
22,COc1ccc(OC)c(C2C(C#N)=C(N)N(N(C)C)C3=C2C(=O)CCC3)c1 (stereo not drawn),9.8

row,Compound,"hERG current change (%, negative = inhibition) at 1uM [%]"
1,O=C(OCn1nnc2ccccc2c1=O)C1COc2ccccc2O1 (stereo not drawn),14.3
2,Cc1ccc(S(=O)(=O)Nc2c(C)n(C)n(-c3ccccc3)c2=O)cc1C(=O)OCC(=O)N1CCCC(C)C1 (stereo not drawn),3.73
3,CCCCCOc1ccc(/C=C/C(=O)NCCc2nc3ccccc3[nH]2)cc1OC,24.2
4,CCOC(=O)Cc1csc(NC(=O)C(NC(=O)C2CCCCC2)C(C)C)n1 (stereo not drawn),12.3
5,Clc1cc2nc[nH]c2cc1Cl,-0.867
6,Fc1ccc(CSc2ncnc3sc4c(c23)CCCC4)cc1,12.7
7,Cn1c(=O)c2c(nc(NCc3ccco3)n2Cc2ccc(Cl)cc2Cl)n(C)c1=O,5.42
8,CC(C)=CCN1CCN(Cc2cccn2-c2nccs2)CC1CCO (stereo not drawn),-1.62
9,O=C1NC[C@H](c2ccccc2)N(CCC23CC4CC(CC(C4)C2)C3)C1=O,16.6
10,O=c1[nH]cnc(O)c1C(c1ccc2c(c1)OCO2)c1c(O)nc[nH]c1=O,-1.24
11,CCC(C(=O)OCn1nnc2ccccc2c1=O)c1ccccc1 (stereo not drawn),6.51
12,COc1cc(-c2nnc(NC(=O)C3=COCCO3)o2)cc(OC)c1OC,1.46
13,Fc1ccccc1C1CCN(Cc2nc(CC3CC3)no2)C1 (stereo not drawn),9.52
14,Cc1oc(-c2ccccc2)nc1CC(=O)O,13.8
15,Cc1cccn2c(=O)c(C(=O)NCCCN3CC(C)CC(C)C3)c(O)nc12 (stereo not drawn),9.14
16,CCN(CC)S(=O)(=O)c1cccc(-c2nnc(SCC(=O)NC3CCCCCC3)n2N)c1,3.46
17,Cc1ccc(C2=NNC(C(O)C(O)C(O)C(O)CO)S2)cc1 (stereo not drawn),3.13
18,Cc1ccc(C)c(NC(=O)CCc2c(C)nn(-c3ccc(N4CCCCC4)nn3)c2C)c1,10
19,Cc1ccccc1-n1c(O)c(/C=N/Nc2nc3c(c(=O)n(C)c(=O)n3C)n2C)c(=O)[nH]c1=S,6.69
20,COc1ccc(S(=O)(=O)N2CCCCC2)cc1NC(=O)CNc1ccc(F)cc1C,6.49
21,COc1ccc(-c2oc3ncnc(NCCCN4CCOCC4)c3c2-c2ccc(OC)cc2)cc1,12
22,Cc1ccc2c(c1)N(CC(=O)NC1CCC(C)CC1)C(=O)c1cccnc1O2 (stereo not drawn),7.72

row,Compound,"hERG current change (%, negative = inhibition) at 1uM [%]"
1,COc1cc(/C=N/Nc2cccc3cccnc23)cc(OC)c1O,8.96
2,CCCCn1c(SCC(=O)c2ccccc2)nc2c1c(=O)[nH]c(=O)n2C,-3.8
3,Cc1ccccc1C(=O)NNC(=O)CN1C(=O)c2ccccc2C1=O,10.1
4,C/C(=N\NC(=O)c1ccc(Br)cc1)c1ccccc1,9.51
5,COc1ccccc1CN1CCC(n2nccc2NC(=O)c2ccccc2Cl)CC1,-47.2
6,CCOC(=O)c1ccc(NC(=O)CCc2nc(-c3ccccc3)no2)cc1,6.73
7,CC(C)[C@H](NC(=O)N1CCn2c1nc1ccccc12)C(=O)N[C@H](Cc1ccccc1)C(=O)O,-0.935
8,Cc1ccc(C(=O)COC(=O)c2nc3nccc(C)n3n2)c(C)c1,9.22
9,Cc1ccc(NC(=O)C2=CCN(S(=O)(=O)c3ccc(F)cc3)CC2)c(C)c1,11
10,c1ccc(COC2CCCN(Cc3nc(-c4cccs4)no3)C2)nc1 (stereo not drawn),-0.784
11,Cc1ccccc1NC(=O)Cc1cccs1,5.16
12,Cn1c(=O)[nH]c(=O)c2c1nc(Br)n2CCSc1nc2ccccc2o1,3.34
13,NNC(=O)c1cc2c(ccc3ccccc32)o1,12.6
14,Cc1nn(C)c2ncc(C(N)=O)c(Oc3ccc(Cl)cc3)c12,11.2
15,CC(C)c1ccc(NC(=S)NCCc2c[nH]c3ccccc23)cc1,14.9
16,O=C1Nc2ccccc2N2CCCC12 (stereo not drawn),17.3
17,CC(C)CCOP(=O)(c1ccc(N(C)C)cc1)C(O)c1c(Cl)cccc1Cl (stereo not drawn),9.28
18,COc1ccc(C(=O)N2CCC(N3CCN(c4ccccc4)CC3)CC2)cc1.O=C(O)C(=O)O,-29.4
19,CC(=O)OC1C(OC(C)=O)N(C(C)=O)C(=O)N1C(C)=O (stereo not drawn),7.95
20,CCN(CC)CCOc1cc2c(nn1)Oc1ccccc1N2C.Cl.O,-3.36
21,CCOc1ccccc1C(=O)NN1CCOCC1,17.7
22,Cc1ccc(NCc2nnc(SCC(=O)c3ccc4c(c3)OCCO4)o2)c(C)c1,12.6

row,Compound,"hERG current change (%, negative = inhibition) at 1uM [%]"
1,Nn1cc(-c2ccccc2)nc1SCC(=O)Nc1ccc2c(c1)OCO2,-5.26
2,O=C1c2ccccc2NC(c2ccc(F)cc2)N1Cc1ccco1 (stereo not drawn),-13.7
3,Cc1c(-c2ccccc2Cl)nc2ccccc2c1C(=O)O,8.99
4,N#Cc1c(NC(=O)COC(=O)c2ccc(S(=O)(=O)N3CCCC3)cc2)sc2c1CCCCC2,6.34
5,CCOC(=O)C1=C(N)Oc2c(oc(CO)cc2=O)C1c1ccccc1 (stereo not drawn),0.382
6,CN(CC(=O)Nc1ccc(F)cc1)C(=O)COC(=O)CNC(=O)c1ccc(Cl)cc1Cl,9.44
7,Cc1ccc(NC(=O)[C@H](CC(C)C)NC(=O)[C@@H]2Cc3ccccc3CN2)cc1,10.1
8,O=C(O)c1ccc(NC(=O)C2C3CCC(O3)C2C(=O)O)cc1 (stereo not drawn),14.4
9,CCOC(=O)C1=C(C)N(Cc2ccc(C(=O)O)cc2)C(=O)NC1c1ccc([N+](=O)[O-])cc1 (stereo not drawn),14
10,COc1ccccc1CCNC(=O)/C(=C/c1cccnc1)NC(=O)c1ccccc1,-1.85
11,CCN1CCN(C(=S)NC(=O)/C=C/c2cccs2)CC1,10.4
12,C#CCn1cc(Cl)cc(C(=O)Nc2ccccc2)c1=O,17.3
13,CCN(CC)c1ccc(NC(=O)CSc2ccsc2[N+](=O)[O-])c(C)c1,6.29
14,O=C1CC(N2CCSCC2)C(=O)N1c1ccc(F)cc1 (stereo not drawn),-3.86
15,COc1ccc(NC(=O)CSc2nc3ccsc3c(=O)n2CCC(=O)O)c(OC)c1,12
16,CCc1nnc(NC(=O)CSc2ccc(-c3ccc(F)cc3)nn2)s1,18
17,CCOC(=O)c1c(C)[nH]c(C(=O)OCc2csc(CC(=O)Nc3ccccc3C)n2)c1C,11.6
18,Cn1c(C(=O)NCCN2CCc3ccccc3C2)cc2c(=O)n(C)c3ccccc3c21,6.51
19,O=C(CSc1nncs1)Nc1cc(-c2ccccc2)nn1-c1ccccc1,-1.34
20,O=C(NCc1ccccc1)c1ccc(N2CCC3(CC2)CC(c2ccccc2)=NO3)c([N+](=O)[O-])c1,12.2
21,Cc1ccc(Cn2nc(-c3ccccc3)nc2-c2ccccc2)cc1,10.6
